Hit rate of the full screen: of about 340,000 compounds, about 6,900 (2%) were called active. No stated cut-off is given here; in the data, active means inhibition above about 30%; inactive means below that, where a call was filed. Only a part is listed here, and it is no random draw. Where no call is shown, the source filed none.
These molecules were tested against D(2) dopamine receptor (Homo sapiens) (UniProt P14416) (assay: HTS Assay for Allosteric Antagonists of the Human D2 Dopamine Receptor: Primary Screen for Antagonists). Details: HEK293 TREx D2 cells, calcium flux, dopamine EC80; at 10 µM; stronger effect = higher value.
Outline: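 Measurement of antagonist activity uses fluorescent calcium dye in inducible HEK293 T-REx D2 cells: 10 s baseline, compound addition with 180 s read, EC80 dopamine addition with a further 180 s read.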
Further: 0% is about no effect.

UniProt P14416, sequence (P14416 whole entry, looked up): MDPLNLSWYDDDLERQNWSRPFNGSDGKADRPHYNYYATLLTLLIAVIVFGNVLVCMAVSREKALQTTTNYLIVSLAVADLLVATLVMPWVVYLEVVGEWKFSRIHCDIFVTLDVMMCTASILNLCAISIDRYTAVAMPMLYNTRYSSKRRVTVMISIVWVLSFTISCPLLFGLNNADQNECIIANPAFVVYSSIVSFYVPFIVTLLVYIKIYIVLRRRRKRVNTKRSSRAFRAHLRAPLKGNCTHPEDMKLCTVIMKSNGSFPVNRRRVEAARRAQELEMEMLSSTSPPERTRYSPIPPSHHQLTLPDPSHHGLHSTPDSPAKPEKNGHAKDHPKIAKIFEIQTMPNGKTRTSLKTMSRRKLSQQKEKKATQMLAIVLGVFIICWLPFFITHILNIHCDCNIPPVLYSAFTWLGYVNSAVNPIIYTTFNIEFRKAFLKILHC

In order of falling inhibition:
1. Cc1cc(C)cc(NC(=O)c2cc(S(=O)(=O)N3CCOCC3)cn2C)c1  25.8%
2. CCOC(=O)c1cccc(NC(=O)C2(S(=O)(=O)c3ccc(C)cc3)CC2)c1  24.1%
3. CCCCCC(=O)N(c1ccc(OCC)cc1)S(=O)(=O)c1ccc2c(c1)n(C)c(=O)n2C  24%
4. CSc1ccc(CNC(=O)CN2C(=O)C3CCCCN3c3ccc(C(=O)N4CCCC4)cc32)cc1 (stereo not given)  18%
5. COc1cccc(C(=O)Nc2ccc(-c3nc4ccc(C)cc4s3)cc2)c1OC  15.7%
6. O=C(COc1cccc(Cl)c1)N1CCC(c2nc3ccccc3s2)CC1  15.5%
7. O=C1CN(C(=O)c2ccc(S(=O)(=O)N3CCCCC3)cc2)C(c2ccc(F)cc2)c2cc(Br)ccc2N1 (stereo not given)  15.5%
8. CCC(Sc1nc2cc3c(cc2c(=O)n1CCCC(=O)NCc1ccc(OC)cc1)OCO3)C(=O)NCCCOC (stereo not given)  15.2%
9. Cc1nn(-c2ccc(N3CCCC3)nn2)c(C)c1CCC(=O)NCc1ccc(F)cc1  15.1%
10. Cc1cccc(OCC(=O)Nc2ccc3oc(-c4ccccc4F)nc3c2)c1  14.7%
11. CCc1ccc(OCC(=O)Nc2ccc(Cl)c(-c3nc4cc(C)cc(C)c4o3)c2)cc1  13.5%
12. CCCCNC(=O)CSc1nc2cc3c(cc2c(=O)n1CCCCCC(=O)NCCc1ccc(OC)c(OC)c1)OCO3  13.3%
13. Cc1ccc(Cl)cc1N1CCN(S(=O)(=O)c2ccc3oc(=O)c4ncn(C)c4c3c2)CC1  11.9%
14. O=C(CSC1=Nc2ccccc2C2=NC(Cc3ccccc3)C(=O)N12)Nc1ccccc1 (stereo not given)  11.1%
15. FC(F)(F)c1ccc(-c2noc(-c3ccccc3Br)n2)cc1  11.1%
16. Cc1ccc(NC(=O)Cn2cc3c(n2)CCC(C)C3)cc1C (stereo not given)  11%
17. Cc1ccc(NC(=O)C2CCN(c3ncccn3)CC2)cc1F  10.1%
18. Cc1ccc(CCNC(=O)c2ccc(CS(=O)(=O)Cc3cccc(C)c3)o2)cc1  9.83%
19. Cc1ccc(OCC(=O)Nc2ccc3nc(SCC(=O)N4CCOCC4)sc3c2)cc1C  9.63%
20. CC(C)OCCCn1c(=O)c2ccccc2n2c(-c3ccc(F)c(F)c3)nnc12  8.39%
21. COc1cc(OC)c(NC(=O)Nc2sc3nc4n(c(=O)c3c2C)CCC(C)CC4)cc1Cl (stereo not given)  7.82%
22. Cc1cc(C)c(S(=O)(=O)NCc2csc(-c3ccccc3)n2)c(C)c1  7.76%
23. Cc1[nH]c2ccc(C(=O)NCCc3ccccc3Cl)cc2c1C  6.91%
24. COc1cn(CC(=O)Nc2ccc(C)cc2C)c(CN2CCCCC2)cc1=O  6.36%
25. COc1cccc(-c2cc(C(F)(F)F)n3nc(C)c(-c4ccccc4)c3n2)c1  5.98%
26. Cc1ccc(N2CCN(c3nc4ccccc4n4nnnc34)CC2)c(C)c1  4.41%
27. Cc1nc2ccc(S(=O)(=O)N(CC(=O)Nc3cccc(C)c3C)Cc3ccccc3)cc2s1  3.72%
28. Cc1ccc(-n2c(SCC(N)=O)nc3c(oc4ccccc43)c2=O)cc1  3.49%
29. Cc1ccccc1C(=O)NC1(C(F)(F)F)N=C(c2ccccc2)N(Cc2ccccc2)C1=O (stereo not given)  3.4%
30. Cc1ccc2cccc(NC(=O)c3ccc(C#N)cc3F)c2n1  2.62%
31. CCOC(=O)c1ccc2c(c1)[C@@H]1C=CC[C@@H]1[C@H](c1cccc(OC)c1OC)N2  2.16%
32. CC(=O)c1ccc(N2CCN(C(=O)c3cc4ccc5cccnc5c4[nH]3)CC2)cc1  1.8%
33. Cc1ccc(C)c(Cn2c(C(C)NC(=O)c3ccccc3)nc3ccccc32)c1 (stereo not given)  1.63%
34. Cc1ccc(NC(=O)C2CCC(CNS(=O)(=O)c3cccc4nsnc34)CC2)c(C)c1 (stereo not given)  1.52%
35. Cc1cc(C)c(NC(=O)Cn2nnc(-c3nc(-c4ccncc4)no3)c2N)c(C)c1  1.52%
36. O=C(COc1ccccc1[N+](=O)[O-])Nc1cc(-c2nc3cc(Cl)ccc3o2)ccc1Cl  1.51%
37. Cc1ccc2nc(N3CCC(C(=O)NCc4ccc(F)cc4)CC3)[nH]c2c1  1.48%
38. COc1ccc(Nc2cc(C(=O)NCc3ccccc3)c3ccccc3n2)cc1  1.08%
39. COC(=O)c1ccc(Oc2nc3c(c(=O)n(C)c(=O)n3C)n2C(C)C)cc1  0.441%
40. COc1ccc(NC(=O)CSc2nc3ccccc3n2CC(=O)Nc2cccc(C)c2C)cc1  0.181%
41. O=C(CSc1nc2c([nH]c3ccccc32)c(=O)n1-c1cccc(C(F)(F)F)c1)N1CCCC1  0.0747%
42. CCCC(=O)C1=C(c2cccc(OC)c2)N(C(=O)CCC)n2c(C)nnc2S1  -1.25%
43. CCOc1ccc(C2c3c(oc4ccccc4c3=O)C(=O)N2Cc2ccc3c(c2)OCO3)cc1 (stereo not given)  -1.67%
44. CCC1CN(C(=O)N2CCC(C(=O)NCc3ccc(C)o3)CC2)c2ccccc2O1 (stereo not given)  -1.68%
45. O=C(O)c1cccc(NC(=O)c2cccc(S(=O)(=O)Nc3cccc(F)c3)c2)c1  -2%
46. Cc1ccc(Cl)cc1N1CCN(C(=O)c2cnn(-c3ccc(Cl)cc3)c2C2CCNCC2)CC1  -2.77%
47. CCN(CC)C(=O)c1sc2c(c1C)c(=O)n(-c1ccc(C)c(C)c1)c(=O)n2Cc1cccc(Cl)c1  -2.81%
48. Cc1cccc(NC(=O)CN2C(=O)COc3ccc(S(=O)(=O)Nc4ccccc4)cc32)c1C  -2.83%
49. Cc1ccc(S(=O)(=O)c2nnn3c2nc(NCc2ccc(F)cc2)c2sccc23)cc1C  -3.48%
50. O=C(Nc1cccc(-c2nc3cc(Cl)ccc3o2)c1)c1ccc(F)cc1  -3.65%
51. CC(=O)C1=C(c2ccc(C)cc2)N(C(C)=O)n2c(nnc2-c2ccccc2)S1  -3.66%
52. Cc1ccccc1Cn1cc(NC(=O)c2cc(-c3ccc(Cl)cc3)on2)cn1  -4.32%
53. O=C(Cn1c(=O)oc2cc(S(=O)(=O)N3CCCC3)ccc21)Nc1ccc(OC(F)(F)F)cc1  -4.5%
54. Cc1ccc2nc(COc3cccc(NC(=O)c4cccc(Cl)c4)c3)cc(=O)n2c1  -4.7%
55. CCc1ccc(NC(=O)C2CCN(S(=O)(=O)c3c(C)noc3/C=C/c3ccco3)CC2)cc1  -4.86%
56. O=C(Cn1c(=O)n(Cc2ccc(F)cc2)c(=O)c2sc3ccccc3c21)NCc1ccccc1  -6.12%
57. CC(=O)N1CCc2cc(CNS(=O)(=O)c3ccc(C(C)(C)C)cc3)ccc21  -6.12%
58. COc1cccc(OCc2nc3ccccc3n2C)c1  -6.53%
59. O=S(=O)(Nc1ccc(-c2ccc(N3CCCC3)nn2)cc1)c1ccccc1Cl  -6.76%
60. COc1ccc(Cn2ccc3nc(C)c(C(=O)N4CCN(c5ccccc5F)CC4)cc3c2=O)cc1  -6.85%
61. CCCS(=O)(=O)N1CC(=O)N(c2ccccc2C)C(C)(C(=O)NC2CCCCC2)C1 (stereo not given)  -7.23%
62. CCOc1cccc(C2c3c(oc4ccc(F)cc4c3=O)C(=O)N2CCOC)c1 (stereo not given)  -8.37%
63. Cc1ccc(OCCSc2nc3ccccc3n2CC(=O)N2CCCCC2)c(C)c1  -8.89%
64. O=C(NCc1noc2ccccc12)N1CCN(c2ccccc2F)CC1  -9.35%
65. COc1ccc(-c2nc3cc(C(C)C)ccc3o2)cc1NC(=O)c1ccc(C)c(Cl)c1  -9.77%
66. CC(=O)c1ccc(NC(=O)/C=C/c2ccc(C)o2)cc1  -11.5%
67. CCC12CN3CC(C)(CN(C1)C3c1c[nH]c3ccc(OC)cc13)C2=O (stereo not given)  -12%
68. Cc1ccc(Nc2c(-c3ccc(N4CCOCC4)cc3)nc3ccc(Cl)cn23)cc1  -12.6%
69. Cc1ccccc1NC(=O)Cn1c(=O)n(CCC(=O)NCc2ccc3c(c2)OCO3)c(=O)c2sccc21  -12.7%
70. CCOc1ccccc1NC(=O)C(C)n1nnc2sc3c(c2c1=O)CCCC3 (stereo not given)  -14.2%
71. CCOC(=O)C1CCN(C(=O)c2ccc3c(c2)sc2nc(-c4ccc(C)cc4)cn23)CC1  -14.6%
72. O=C(CCn1cnc2onc(-c3ccc(F)cc3)c2c1=O)N1CCN(c2ccccc2)CC1  -14.8%
73. Cc1cccc(-c2nnn3c2nc(NCCC(C)C)c2ccccc23)c1  -14.9%
74. CCc1ccccc1N(C)C(=O)c1nn(C)c2c1CSc1ccccc1-2  -15.6%
75. COc1ccc(S(=O)(=O)NCC(c2ccc(N(C)C)cc2)N2CCCC2)cc1F (stereo not given)  -15.7%
76. CCn1ccc2cc(S(=O)(=O)N3CCCN(C(=O)NCC(=O)OC)CC3)ccc21  -16.4%
77. CCCNC(=O)C1CCC(Cn2c(=O)c3sccc3n(CC(=O)N3CCCC(C)C3)c2=O)CC1 (stereo not given)  -16.5%
78. COc1cccc(C(=O)Nc2ccccc2SCc2cc(=O)c3cccc(C)c3[nH]2)c1  -21.8%
79. Cc1cc2c(cc1S(=O)(=O)N1CCC(C(N)=O)CC1)OCC(=O)N2  -22.4%
80. Cc1ccc(CCNC(=O)c2ccc(Cn3c(=O)c4cccn4c4cccnc43)cc2)cc1  -23%
81. COc1ccccc1OCCn1c(NC(=O)c2ccccc2)nc2ccccc21  -24.8%
82. COC(=O)c1cc2sc(C)cc2n1CC(=O)Nc1cccc(SC)c1  -25.9%

In the case of `O=C(NNC1=Nc2ccccc2SC1)c1cccc([N+](=O)[O-])c1`, the inhibition is reported as active: 70.7%.
`COc1ccc(NC(=O)CCN2C(=O)c3ccncc3C2=O)cc1OC` was tested, and the inhibition was active: 33.9%.
`Cc1nn(Cc2ccc(Cl)cc2)c2sc(C(=O)O)cc12` was tested, and the inhibition was active: 31.6%.
With `CN(C(=O)CN1CCN(c2cnn(-c3ccccc3)c(=O)c2Cl)CC1)C1CCS(=O)(=O)C1` (stereo not given) the inhibition was active: 33.2%.
`CCOC(=O)N1CCN(CCC(=O)Nc2ccc(OC)cc2OC)CC1` was tested, and the inhibition was active: 36.4%.
For `COc1ccc(C(CNC(=O)c2ccc(NS(=O)(=O)c3ccc4c(c3)OCCO4)cc2)N(C)C)cc1` (stereo not given), the inhibition was active: 31%.
With `CCC1(NC(C)=O)CC2CC1CC2NC(C)=O` (stereo not given) the inhibition was active: 38.5%.
For `COc1ccc(/C=C/C(=O)Nc2ccccc2)cc1OC`, the inhibition was active: 30.2%.
With `c1ccc(-c2ccccc2OCCOCCN2CCCCC2)cc1` the inhibition was active: 87.1%.
In the case of `O=C(CN1CCN(c2cccc(Cl)c2)CC1)Nc1ccc(S(=O)(=O)N2CCOCC2)cc1`, the inhibition is reported as active: 30.5%.
In the case of `c1ccc(CCCN2CCN(c3ccccc3)CC2)cc1`, the inhibition is reported as active: 78.9%.
In the case of `CC(C(=O)N(C)Cc1ccccc1)N1CCN(C/C=C/c2ccccc2)CC1` (stereo not given), the inhibition is reported as active: 68.7%.
With `Cc1[nH]c2ccccc2c1CN1CCN(c2ccccn2)CC1` the inhibition was active: 55.8%.

From PubChem BioAssay AID485344 (National Center for Advancing Translational Sciences (NCATS), 2010)
